This is one part of the list.
Legend:
Experiment in all cases: glycan array binding signal (z-score within array); higher = stronger binding
Conditions in all cases: glycan notation: IUPAC condensed, linker removed
Fuc(a1-2)Gal = molecular target: Fuc(a1-2)Gal
Summary of the method: (§1)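 From the Consortium for Functional Glycomics database, 3228 arrays were curated, keeping only those whose protein sequence was available. Binding is given as a within-array Z-score averaged across arrays sharing a protein sequence and across linkers. Negative Z-scores can be read as non-binding.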

Fuc(a1-2)Gal(b1-3)GalNAc = molecular target: Fuc(a1-2)Gal(b1-3)GalNAc
Summary of the method: as §1

[1] = molecular target: Fuc(a1-2)Gal(b1-3)GalNAc(a1-3)[Fuc(a1-2)]Gal(b1-4)Glc
Summary of the method: as §1

[2] = molecular target: Fuc(a1-2)Gal(b1-3)GalNAc(a1-3)[Fuc(a1-2)]Gal(b1-4)GlcNAc
Summary of the method: as §1

[3] = molecular target: Fuc(a1-2)Gal(b1-3)GalNAc(b1-3)Gal
Summary of the method: as §1

[4] = molecular target: Fuc(a1-2)Gal(b1-3)GalNAc(b1-3)Gal(a1-4)Gal(b1-4)Glc
Summary of the method: as §1

[5] = molecular target: Fuc(a1-2)Gal(b1-3)GalNAc(b1-4)[Neu5Ac(a2-3)]Gal(b1-4)Glc
Summary of the method: as §1

Fuc(a1-2)Gal(b1-3)GlcNAc = molecular target: Fuc(a1-2)Gal(b1-3)GlcNAc
Summary of the method: as §1

[6] = molecular target: Fuc(a1-2)Gal(b1-3)GlcNAc(b1-2)Man(a1-3)[Fuc(a1-2)Gal(b1-3)GlcNAc(b1-2)Man(a1-6)]Man(b1-4)GlcNAc(b1-4)GlcNAc
Summary of the method: as §1

[7] = molecular target: Fuc(a1-2)Gal(b1-3)GlcNAc(b1-2)Man(a1-3)[Fuc(a1-2)Gal(b1-3)GlcNAc(b1-2)Man(a1-6)]Man(b1-4)GlcNAc(b1-4)[Fuc(a1-6)]GlcNAc
Summary of the method: as §1

[8] = molecular target: Fuc(a1-2)Gal(b1-3)GlcNAc(b1-3)Gal(b1-4)Glc
Summary of the method: as §1

[9] = molecular target: Fuc(a1-2)Gal(b1-3)GlcNAc(b1-3)GalNAc
Summary of the method: as §1

[10] = molecular target: Fuc(a1-2)Gal(b1-3)GlcNAc(b1-3)[Fuc(a1-2)Gal(b1-3)GlcNAc(b1-6)]GalNAc
Summary of the method: as §1

[11] = molecular target: Fuc(a1-2)Gal(b1-3)GlcNAc(b1-3)[Fuc(a1-3)[Gal(b1-4)]GlcNAc(b1-6)]Gal(b1-4)Glc
Summary of the method: as §1

[12] = molecular target: Fuc(a1-2)Gal(b1-3)GlcNAc(b1-3)[Gal(b1-4)GlcNAc(b1-6)]Gal(b1-4)Glc
Summary of the method: as §1

[13] = molecular target: Fuc(a1-2)Gal(b1-3)GlcNAc(b1-3)[Neu5Ac(a2-6)Gal(b1-4)GlcNAc(b1-6)]Gal(b1-4)Glc
Summary of the method: as §1

[14] = molecular target: Fuc(a1-2)Gal(b1-3)GlcNAc6S
Summary of the method: as §1

[15] = molecular target: Fuc(a1-2)Gal(b1-3)[Fuc(a1-4)]GlcNAc
Summary of the method: as §1

[16] = molecular target: Fuc(a1-2)Gal(b1-3)[Fuc(a1-4)]GlcNAc(b1-2)Man(a1-3)[Fuc(a1-2)Gal(b1-3)[Fuc(a1-4)]GlcNAc(b1-2)Man(a1-3)]Man(b1-4)GlcNAc(b1-4)GlcNAc
Summary of the method: as §1

[17] = molecular target: Fuc(a1-2)Gal(b1-3)[Fuc(a1-4)]GlcNAc(b1-2)Man(a1-3)[Fuc(a1-2)Gal(b1-3)[Fuc(a1-4)]GlcNAc(b1-2)Man(a1-6)]Man(b1-4)GlcNAc(b1-4)GlcNAc
Summary of the method: as §1

[18] = molecular target: Fuc(a1-2)Gal(b1-3)[Fuc(a1-4)]GlcNAc(b1-2)Man(a1-3)[Fuc(a1-2)Gal(b1-3)[Fuc(a1-4)]GlcNAc(b1-2)Man(a1-6)]Man(b1-4)GlcNAc(b1-4)[Fuc(a1-6)]GlcNAc(b1-4)[Fuc(a1-6)]GlcNAc
Summary of the method: as §1

[19] = molecular target: Fuc(a1-2)Gal(b1-3)[Fuc(a1-4)]GlcNAc(b1-3)[Fuc(a1-3)[Gal(b1-4)]GlcNAc(b1-6)]Gal(b1-4)Glc
Summary of the method: as §1

[20] = molecular target: Fuc(a1-2)Gal(b1-3)[Fuc(a1-4)]GlcNAc(b1-3)[Gal(b1-4)GlcNAc(b1-6)]Gal(b1-4)Glc
Summary of the method: as §1

[21] = molecular target: Fuc(a1-2)Gal(b1-4)Fuc(a1-3)]GlcNAc(b1-2)Man(a1-3)[Fuc(a1-2)Gal(b1-4)[Fuc(a1-3)]GlcNAc(b1-2)Man(a1-6)]Man(b1-4)GlcNAc(b1-4)GlcNAc
Summary of the method: as §1

Fuc(a1-2)Gal(b1-4)Glc = molecular target: Fuc(a1-2)Gal(b1-4)Glc
Summary of the method: as §1

Fuc(a1-2)Gal(b1-4)Glc6S = molecular target: Fuc(a1-2)Gal(b1-4)Glc6S
Summary of the method: as §1

Fuc(a1-2)Gal(b1-4)GlcNAc = molecular target: Fuc(a1-2)Gal(b1-4)GlcNAc
Summary of the method: as §1

[22] = molecular target: Fuc(a1-2)Gal(b1-4)GlcNAc(b1-2)Man
Summary of the method: as §1

[23] = molecular target: Fuc(a1-2)Gal(b1-4)GlcNAc(b1-2)Man(a1-3)[Fuc(a1-2)Gal(b1-4)GlcNAc(b1-2)Man(a1-6)]Man(b1-4)GlcNAc(b1-4)GlcNAc
Summary of the method: as §1

[24] = molecular target: Fuc(a1-2)Gal(b1-4)GlcNAc(b1-2)Man(a1-3)[Fuc(a1-2)Gal(b1-4)GlcNAc(b1-2)Man(a1-6)]Man(b1-4)GlcNAc(b1-4)[Fuc(a1-6)]GlcNAc
Summary of the method: as §1

[25] = molecular target: Fuc(a1-2)Gal(b1-4)GlcNAc(b1-2)[Fuc(a1-2)Gal(b1-4)GlcNAc(b1-4)]Man(a1-3)[Fuc(a1-2)Gal(b1-4)GlcNAc(b1-2)Man(a1-6)]Man(b1-4)GlcNAc(b1-4)GlcNAc
Summary of the method: as §1

[26] = molecular target: Fuc(a1-2)Gal(b1-4)GlcNAc(b1-3)Gal(b1-4)GlcNAc
Summary of the method: as §1

[27] = molecular target: Fuc(a1-2)Gal(b1-4)GlcNAc(b1-3)Gal(b1-4)GlcNAc(b1-2)Man(a1-3)[Fuc(a1-2)Gal(b1-4)GlcNAc(b1-3)Gal(b1-4)GlcNAc(b1-2)Man(a1-6)]Man(b1-4)GlcNAc(b1-4)GlcNAc
Summary of the method: as §1

[28] = molecular target: Fuc(a1-2)Gal(b1-4)GlcNAc(b1-3)Gal(b1-4)GlcNAc(b1-3)Gal(b1-4)GlcNAc
Summary of the method: as §1

[29] = molecular target: Fuc(a1-2)Gal(b1-4)GlcNAc(b1-3)GalNAc
Summary of the method: as §1

[30] = molecular target: Fuc(a1-2)Gal(b1-4)GlcNAc(b1-3)[Fuc(a1-2)Gal(b1-4)GlcNAc(b1-6)]GalNAc
Summary of the method: as §1

[31] = molecular target: Fuc(a1-2)Gal(b1-4)GlcNAc(b1-3)[Fuc(a1-3)[Gal(b1-4)]GlcNAc(b1-6)]Gal(b1-4)Glc
Summary of the method: as §1

B1: PA-IL (Pseudomonas aeruginosa), Q05097 (protein)
chain: MAWKGEVLANNEAGQVTSIIYNPGDVITIVAAGWASYGPTQKWGPQGDREHPDQGLICHDAFCGALVMKIGNSGTIPVNTGLFRWVAPNNVQGAITLIYNDVPGTYGNNSGSFSVNIGKDQS
Q: For B1, which “glycan array binding signal (z-score)” value (Fuc(a1-2)Gal) is on record?
A: -0.23

Q: And the “glycan array binding signal (z-score)” value (Fuc(a1-2)Gal(b1-3)GalNAc)?
A: -0.228

Q: What about the “glycan array binding signal (z-score)” value [1] of the same binder?
A: -0.224

Q: And the “glycan array binding signal (z-score)” value [2]?
A: -0.238

Q: What about the “glycan array binding signal (z-score)” value [3] of the same binder?
A: -0.225

Q: What about the “glycan array binding signal (z-score)” value [4] of the same binder?
A: -0.234

Q: What about the “glycan array binding signal (z-score)” value [5] of the same binder?
A: -0.229

Q: And the “glycan array binding signal (z-score)” value (Fuc(a1-2)Gal(b1-3)GlcNAc)?
A: -0.226

Q: What about the “glycan array binding signal (z-score)” value [6] of the same binder?
A: -0.196

Q: What about the “glycan array binding signal (z-score)” value [7] of the same binder?
A: -0.217

Q: What about the “glycan array binding signal (z-score)” value [8] of the same binder?
A: -0.233

Q: What about the “glycan array binding signal (z-score)” value [9] of the same binder?
A: -0.231

Q: What about the “glycan array binding signal (z-score)” value [10] of the same binder?
A: -0.177

Q: What about the “glycan array binding signal (z-score)” value [11] of the same binder?
A: -0.228

Q: And the “glycan array binding signal (z-score)” value [12]?
A: -0.228

Q: What about the “glycan array binding signal (z-score)” value [13] of the same binder?
A: -0.224

Q: And the “glycan array binding signal (z-score)” value [14]?
A: -0.23

Q: What about the “glycan array binding signal (z-score)” value [15] of the same binder?
A: -0.23

Q: What about the “glycan array binding signal (z-score)” value [16] of the same binder?
A: -0.189

Q: What about the “glycan array binding signal (z-score)” value [17] of the same binder?
A: -0.22

Q: What about the “glycan array binding signal (z-score)” value [18] of the same binder?
A: -0.214

Q: And the “glycan array binding signal (z-score)” value [19]?
A: -0.233

Q: What about the “glycan array binding signal (z-score)” value [20] of the same binder?
A: -0.228

Q: And the “glycan array binding signal (z-score)” value [21]?
A: -0.202

Q: And the “glycan array binding signal (z-score)” value (Fuc(a1-2)Gal(b1-4)Glc)?
A: -0.223

Q: What about the “glycan array binding signal (z-score)” value (Fuc(a1-2)Gal(b1-4)Glc6S) of the same binder?
A: -0.219

Q: And the “glycan array binding signal (z-score)” value (Fuc(a1-2)Gal(b1-4)GlcNAc)?
A: -0.224

Q: What about the “glycan array binding signal (z-score)” value [22] of the same binder?
A: -0.202

Q: What about the “glycan array binding signal (z-score)” value [23] of the same binder?
A: -0.223

Q: What about the “glycan array binding signal (z-score)” value [24] of the same binder?
A: -0.215

Q: And the “glycan array binding signal (z-score)” value [25]?
A: -0.197

Q: What about the “glycan array binding signal (z-score)” value [26] of the same binder?
A: -0.231

Q: And the “glycan array binding signal (z-score)” value [27]?
A: -0.217

Q: And the “glycan array binding signal (z-score)” value [28]?
A: -0.223

Q: What about the “glycan array binding signal (z-score)” value [29] of the same binder?
A: -0.216

Q: And the “glycan array binding signal (z-score)” value [30]?
A: -0.208

Q: What about the “glycan array binding signal (z-score)” value [31] of the same binder?
A: -0.243
